The shares of active, inactive and inconclusive entries below differ from those in the screen. Potencies beside an inconclusive call are fits to weak or partial responses and may not hold up. For some assays here: A note “side channel” means that the fit belongs to a control or component signal, not to the main read-out. Active and inactive are the calls of the source. Unless noted, calls follow the shape of the dose curve; as a rule, active = well fitted inhibition curve with a large enough effect; inconclusive = small, poorly fitted or top-dose-only effect; inactive = no such curve, though single readings can be large or run the other way.
Test system: not listed separately
Test: qHTS Assay for Identification of Small Molecule Antagonists for NFkB Signaling Pathway (AID 895; active = well fitted inhibition curve with a large enough effect in the signal ratio, with a control signal flat, not every such curve was filed as active; inconclusive = small, poorly fitted or top-dose-only effect, or effect the other way, or a change in a side signal; the % refers to the signal ratio; as to activity change, negative = inhibition: % is scaled to controls: 0 for no effect and ±100 for the full control effect)
Conditions: NFkB beta-lactamase reporter cells, FRET ratio 460/530; activity change, negative = inhibition: at 38.3 µM (top of the series) unless noted
Method in brief: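 NFkB-bla ME-180 cervical carcinoma cells with beta-lactamase reporter under NFkB response element; compounds added, then TNF alpha at 10 pM final (EC50), 5 h at 37 C. LiveBLAzer substrate 2 h, room temperature; emission 460/530 nm at 405 nm excitation.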
With `CN1[C@@H]2CC[C@H]1CC(O[C@@H](c1ccccc1)c1ccc(Cl)cc1)C2` (stereo not given in full) the Potency was inconclusive: 10 µM [inhibitor, single point].
With `COc1ccc(CNC(=O)/C=C\c2ccc3[nH]cc(CCN(C)C)c3c2)cc1` the activity change, negative = inhibition was inconclusive: -0.19%.
In the case of `CCCN1CC[C@@H]2c3cc(O)ccc3CC[C@H]21`, the Potency is reported as “inactive”.
For `N[C@@]1(C(=O)O)CC[C@H](C(=O)O)C1`, the activity change, negative = inhibition was inconclusive: -37.6% [at 38.3 µM, stimulated with 10 pM TNF alpha].
In the case of `N[C@@H](Cc1cc(O)c(O)cc1O)C(=O)O`, the Potency is reported as inconclusive: 7.08 µM [inhibitor, single point] [stimulated with 10 pM TNF alpha].
For `Cc1o[nH]c(=O)c1C[C@H](N)C(=O)O`, the Potency was “inactive”.
In the case of `CCOC(=O)c1ncn2c1[C@H]1CCCN1C(=O)c1cc(OC)ccc1-2`, the activity change, negative = inhibition is reported as inconclusive: 9.48%.
In the case of `O=C(Cc1ccc(Cl)c(Cl)c1)N1CCCC[C@H]1CN1CCCC1`, the Potency is reported as inconclusive: 12.6 µM [inhibitor, single point].
With `COC[C@H]1OC(=O)c2coc3c2[C@@]1(C)C1=C(C3=O)[C@H]2CCC(=O)[C@@]2(C)C[C@H]1OC(C)=O` the Potency was inconclusive: 0.141 µM [side channel, falling, full curve, poor fit].
In the case of `C[N+]1(C)C2CC(OC(=O)C(CO)c3ccccc3)CC1[C@@H]1O[C@H]21` (stereo not given in full), the activity change, negative = inhibition is reported as inconclusive: -15.7% [at 38.3 µM, stimulated with 10 pM TNF alpha].

Target: Cytochrome P450 2C19 (Homo sapiens) (UniProt P33261)
Chain of UniProt P33261 (P33261 whole entry, looked up): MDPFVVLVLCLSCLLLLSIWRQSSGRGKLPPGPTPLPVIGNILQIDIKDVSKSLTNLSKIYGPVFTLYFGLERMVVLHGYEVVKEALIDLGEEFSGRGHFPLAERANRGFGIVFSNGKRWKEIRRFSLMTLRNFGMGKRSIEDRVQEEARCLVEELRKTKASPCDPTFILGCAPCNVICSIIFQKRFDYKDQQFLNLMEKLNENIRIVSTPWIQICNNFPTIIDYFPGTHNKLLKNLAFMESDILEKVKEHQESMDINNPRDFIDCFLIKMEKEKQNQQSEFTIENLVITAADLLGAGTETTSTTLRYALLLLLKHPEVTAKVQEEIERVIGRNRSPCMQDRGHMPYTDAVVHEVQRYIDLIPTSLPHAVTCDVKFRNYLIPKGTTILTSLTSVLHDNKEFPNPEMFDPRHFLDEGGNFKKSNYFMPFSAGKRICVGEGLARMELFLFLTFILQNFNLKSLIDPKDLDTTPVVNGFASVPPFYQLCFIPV
Test: qHTS Assay for Inhibitors and Substrates of Cytochrome P450 2C19 (AID 899); also: nearly all actives have a fitted effect of over 60% in size
Conditions: recombinant CYP2C19, luciferin-H EGE luminescence; series mostly up to 57.1 µM
Method in brief: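 In 50mM KPO4, the reaction held 5nM enzyme and KM-level (10uM) Luciferin-H EGE; it ran 60 min at 37C after NADPH regeneration and a 10 min compound preincubation. Luminescence values were scaled to 57uM ketoconazole as complete inhibition.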
In the case of `C[C@@H]1[C@H]2C=C[C@@H]1[C@@H](c1c3ccc(=O)c(O)c-3oc3c(O)c(O)ccc13)[C@@H]2C(=O)O`, the Potency is reported as inconclusive: 3.98 µM [inhibitor, single point].
For `N[C@@H](Cc1cc(O)c(O)cc1O)C(=O)O`, the Potency was “inactive”.
For `c1cc2c(cc1[C@H]1OC[C@H]3[C@@H]1CO[C@H]3c1ccc3c(c1)OCO3)OCO2`, the Potency was active: 3.16 µM.
With `COc1cc2c(cc1OC)-c1c(OC)c(OC)c(CO)c3c1[C@H](C2)N(C)CC3` the Potency was “inactive”.

Test system: not listed separately
Test: qHTS Assay for Identification of Small Molecule Agonists for Hypoxia Response Element Signaling Pathway (AID 914; active = well fitted activation curve with a large enough effect in the signal ratio, with a control signal flat, not every such curve was filed as active; inconclusive = small, poorly fitted or top-dose-only effect, or effect the other way, or a change in a side signal; the % refers to the signal ratio; as to activation: top concentration of the series differs between compounds; % of control where 0% means no effect)
Conditions: ME-180 (cervical carcinoma) HRE-bla reporter, beta-lactamase ratio, CoCl2, 17 h; activation: stronger effect = higher value
Method in brief: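 HRE-bla ME-180 assay for agonist-like enhancement of an EC50 CoCl2 stimulus: 17 h at 37 degrees Celsius, CCF4 for 2.5 h, ratiometric 460/530 nm signal converted to %Activity and fitted to AC50.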
In the case of `C(#CCN1CCCC1)CN1CCCC1`, the activation is reported as inconclusive: 51%.
With `C[C@@H]1[C@H]2C=C[C@@H]1[C@@H](c1c3ccc(=O)c(O)c-3oc3c(O)c(O)ccc13)[C@@H]2C(=O)O` the activation was inconclusive: -31.4%.
In the case of `N[C@@H](Cc1cc(O)c(O)cc1O)C(=O)O`, the Potency is reported as inconclusive: 15.8 µM [inhibitor, partial curve, poor fit].
In the case of `CC[C@@](O)(C(=O)O)c1cc2n(c(=O)c1CO)Cc1cc3ccccc3nc1-2`, the Potency is reported as inconclusive: 3.16 µM [inhibitor, single point].
For `O=C(O)C(O)(c1ccc(-c2ccccc2)cc1)c1ccc(-c2ccccc2)cc1`, the activation was inconclusive: -6.4%.
In the case of `O=C(Cc1ccc(Cl)c(Cl)c1)N1CCCC[C@H]1CN1CCCC1`, the Potency is reported as inconclusive: 2.51 µM [inhibitor, full curve].
Potency is read from the fitted curve at half-maximal effect; tags tell the direction and shape of the fitted curve or compound fluorescence and quenching.
